From US20240239829A1 (priority 2021, published 2024)

Key:
[1] = tested on: influenza infection and pneumonia
porcine rotavirus (PoRV) = conditions: newborn piglets aged 1-3 days
[2] = tested on: Lung epithelium cell line A549; test: Sialic acid levels on A549 cells (fluorescent WGA, flow cytometry); conditions: over night at 37° C., 1 μg/ml-50 μg/ml
[3] = NANA-Me:NANA=1:1, 37° C., different pH
Experimental: Using simulated gastric fluid (SGF, pH=1.0), simulated intestinal fluid (SIF, pH=7.3) and phosphate buffer (PBS, pH=4.5) as diluents, the solution of N-acetylneuraminic acid (NANA) or N-acetylneuraminic acid methyl ester (NANA-Me) at the concentration of 5 mg/ml was prepared. The stabilities of N-acetylneuraminic acid, N-acetylneuraminic acid methyl ester and a combination of NANA plus NANA-Me (ratio=1:1) at 37° C. and different pH conditions were measured at various time points of 0.5, 1, 2, 4, and 6 hours. In addition, the optimal ratio of NANA to NANA-Me that maximizes the stability of NANA-Me at different pH conditions was tested at various time points of 0.5, 1, 2, 4, and 6 hours.

respiratory infection = test: Prevention of respiratory infections of weaning piglets; assay type: in vivo; conditions: nursery feed for 4 days from day 15 of weaning
Text: The sick rate was about 10% and the death rate was about 5%. […] Control feed comprised 500 grams of Tilmicosin per 1000 kg. The nursery feeds were given to 763 of weaning piglets and 750 of controls from day 15 of the weaning period.

With `CS(=O)(=O)c1ccc([C@@H](O)[C@@H](CF)NC(=O)C(Cl)Cl)cc1` [Antibiotic, Florfenicol] the “Odds Ratio” value ([1]; death) was 0.58, the Death ([1]; number of pigs, via feed mixture for 5-7 days) was 5 and the “Death Rate (%)” value ([1]; via feed mixture for 5-7 days) was 4.76%.
For `CCN1CCN(c2cc3c(cc2F)c(=O)c(C(=O)O)cn3C2CC2)CC1` [Enrofloxacin], the “efficacy of antibiotic treatment” value (porcine rotavirus (PoRV)) was “less than 30%”.
For `CC(=O)N[C@H]1[C@H]([C@H](O)[C@H](O)CO)OC(O)(C(=O)O)C[C@@H]1O` (some centres unmarked) [NANA, N-acetylneuraminic acid], the “sialic acid levels of the A549 cells” value [2] was “not changed significantly”.
In the case of `COC(=O)[C@]1(O)CC(O)[C@@H](NC(C)=O)C(C(O)[C@H](O)CO)O1` (some centres unmarked) [NANA-Me, N-acetylneuraminic acid methyl ester], the “sialic acid levels of the A549 cells” value [2] is reported as “increased in a way of dose dependent” and the “stability of NANA-Me in a composition with NANA” value [3] is reported as “improved”.
With `CC[C@H]1OC(=O)C[C@@H](O)[C@H](C)[C@@H](O[C@@H]2O[C@H](C)[C@@H](O)[C@H](N(C)C)[C@H]2O)[C@@H](CCN2C[C@H](C)C[C@H](C)C2)C[C@@H](C)C(=O)/C=C/C(C)=C/[C@@H]1CO[C@@H]1O[C@H](C)[C@@H](O)[C@@H](OC)[C@H]1OC` [Tilmicosin] the “Death Rate (%)” value (respiratory infection) was 5.10%.
